Assay results from the supplement of paper PMC7125110.
This sample is rich in variants without activity.

B1: glmS ribozyme (parent)
chain: AUAAAAGCGCCAGAACUACAGAAAUGUAGUUGACGAGGAGGAGGUUUAUCGAAUUUUCGGCGGAUGCCUCCAAA

Experiments:
Conditions in all cases: with glucosamine-6-phosphate
[1] = variants of: B1; assay: self-cleavage kobs at 40 uM GlcN6P; higher = faster cleavage; RNA array
Summary of the method: (§1)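 Tiles bearing barcoded ribozyme variants, transcribed in situ by E. coli RNA polymerase on sequenced MiSeq chips, were imaged over ~14 h at 37 °C using a hybridised Cy3 probe. Glucosamine-6-phosphate was supplied at 40 μM to 10 mM in HEPES/KCl/Mg(OAc)2 buffer. kobs came from one- or two-exponential decay fits to normalised per-tile medians, and weighted Michaelis–Menten fits then provided kcat and KM.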

[2] = variants of: B1; assay: self-cleavage kobs at 2500 uM GlcN6P; higher = faster cleavage; RNA array
Summary of the method: as §1

[3] = variants of: B1; assay: self-cleavage kobs at 10000 uM GlcN6P; higher = faster cleavage; RNA array
Summary of the method: as §1

[4] = variants of: B1; assay: self-cleavage kobs at 640 uM GlcN6P; higher = faster cleavage; RNA array
Summary of the method: as §1

[5] = variants of: B1; assay: self-cleavage kobs at 160 uM GlcN6P; higher = faster cleavage; RNA array
Summary of the method: as §1

| Variant | self-cleavage kobs at 40 uM GlcN6P [1] | self-cleavage kobs at 2500 uM GlcN6P [2] | self-cleavage kobs at 10000 uM GlcN6P [3] | self-cleavage kobs at 640 uM GlcN6P [4] | self-cleavage kobs at 160 uM GlcN6P [5] |
| --- | --- | --- | --- | --- | --- |
| A6G G9U C10A C11A A36U G51C | < 1e-05 s⁻¹ | < 1e-05 s⁻¹ | < 1e-05 s⁻¹ | – | – |
| A6G G29A | < 1e-05 s⁻¹ | – | – | – | – |
| A6G G29C A64U C67U | < 1e-05 s⁻¹ | – | < 1e-05 s⁻¹ | – | – |
| A6G G35U | < 1e-05 s⁻¹ | < 1e-05 s⁻¹ | < 1e-05 s⁻¹ | < 1e-05 s⁻¹ | < 1e-05 s⁻¹ |
| A6G G38U U46C | < 1e-05 s⁻¹ | < 1e-05 s⁻¹ | – | – | – |
| A6G U45C A53C G62C | < 1e-05 s⁻¹ | – | < 1e-05 s⁻¹ | – | – |
| A6G U47C | < 1e-05 s⁻¹ | – | – | < 1e-05 s⁻¹ | < 1e-05 s⁻¹ |
| A6G U49A A53G U57C | < 1e-05 s⁻¹ | – | < 1e-05 s⁻¹ | – | – |
| A6U A39U C70U | < 1e-05 s⁻¹ | – | – | – | < 1e-05 s⁻¹ |
| A6U A48U | < 1e-05 s⁻¹ | < 1e-05 s⁻¹ | – | < 1e-05 s⁻¹ | < 1e-05 s⁻¹ |
| A6U A53C | < 1e-05 s⁻¹ | – | – | – | – |
| A6U A64U | < 1e-05 s⁻¹ | < 1e-05 s⁻¹ | < 1e-05 s⁻¹ | – | < 1e-05 s⁻¹ |
| A6U C58A | < 1e-05 s⁻¹ | – | – | – | – |
| A6U C67U C70G | < 1e-05 s⁻¹ | – | – | – | – |
| A6U G13C C16A U45G | < 1e-05 s⁻¹ | – | – | – | – |
| A6U G35U | < 1e-05 s⁻¹ | – | – | – | – |
| A6U G59A | < 1e-05 s⁻¹ | – | – | < 1e-05 s⁻¹ | – |
| A6U U47G G62C U65A C68U | < 1e-05 s⁻¹ | – | – | – | – |
| A6U U57C | < 1e-05 s⁻¹ | – | < 1e-05 s⁻¹ | – | – |
| G7A A33U | < 1e-05 s⁻¹ | – | < 1e-05 s⁻¹ | – | < 1e-05 s⁻¹ |
| G7A A48C A52U | < 1e-05 s⁻¹ | – | – | – | – |
| G7A A52C | < 1e-05 s⁻¹ | < 1e-05 s⁻¹ | < 1e-05 s⁻¹ | < 1e-05 s⁻¹ | < 1e-05 s⁻¹ |
| G7A C10G A12C G32U U69C | < 1e-05 s⁻¹ | – | < 1e-05 s⁻¹ | – | – |
| G7A C11G | < 1e-05 s⁻¹ | – | < 1e-05 s⁻¹ | – | – |
| G7A C11U U31A A33G G43C U56A | < 1e-05 s⁻¹ | – | – | – | – |
| G7A C34A C71U | < 1e-05 s⁻¹ | – | – | – | – |

| Variant | self-cleavage kobs at 40 uM GlcN6P [1] | self-cleavage kobs at 2500 uM GlcN6P [2] | self-cleavage kobs at 10000 uM GlcN6P [3] | self-cleavage kobs at 640 uM GlcN6P [4] | self-cleavage kobs at 160 uM GlcN6P [5] |
| --- | --- | --- | --- | --- | --- |
| G7A C58A A64G G66A | < 1e-05 s⁻¹ | – | < 1e-05 s⁻¹ | – | – |
| G7A G32A C58A | < 1e-05 s⁻¹ | – | < 1e-05 s⁻¹ | – | – |
| G7A G37C G51C U55C C70A | < 1e-05 s⁻¹ | – | < 1e-05 s⁻¹ | – | – |
| G7C A33C | < 1e-05 s⁻¹ | < 1e-05 s⁻¹ | < 1e-05 s⁻¹ | < 1e-05 s⁻¹ | – |
| G7C A52U | < 1e-05 s⁻¹ | < 1e-05 s⁻¹ | – | < 1e-05 s⁻¹ | < 1e-05 s⁻¹ |
| G7C C8A U45G U65A | < 1e-05 s⁻¹ | < 1e-05 s⁻¹ | < 1e-05 s⁻¹ | – | – |
| G7C C11G G51A | < 1e-05 s⁻¹ | – | < 1e-05 s⁻¹ | – | – |
| G7C C11U G29A G40A A42U G62U | < 1e-05 s⁻¹ | – | – | – | – |
| G7C C16A U49A | < 1e-05 s⁻¹ | < 1e-05 s⁻¹ | < 1e-05 s⁻¹ | – | – |
| G7C G51A | < 1e-05 s⁻¹ | – | < 1e-05 s⁻¹ | < 1e-05 s⁻¹ | < 1e-05 s⁻¹ |
| G7C U49A U54A | < 1e-05 s⁻¹ | < 1e-05 s⁻¹ | < 1e-05 s⁻¹ | < 1e-05 s⁻¹ | < 1e-05 s⁻¹ |
| G7U A15C U49A C61U | < 1e-05 s⁻¹ | < 1e-05 s⁻¹ | < 1e-05 s⁻¹ | – | < 1e-05 s⁻¹ |
| G7U A33U A64G C70G | < 1e-05 s⁻¹ | – | – | – | – |
| G7U C8U C67U | < 1e-05 s⁻¹ | – | – | – | – |
| G7U C10A | < 1e-05 s⁻¹ | < 1e-05 s⁻¹ | < 1e-05 s⁻¹ | < 1e-05 s⁻¹ | < 1e-05 s⁻¹ |
| G7U C16U A39U U57C G62A | < 1e-05 s⁻¹ | – | < 1e-05 s⁻¹ | – | – |
| G7U C34A | < 1e-05 s⁻¹ | – | < 1e-05 s⁻¹ | < 1e-05 s⁻¹ | < 1e-05 s⁻¹ |
| G7U G32A G41C U49A U55G G63C | < 1e-05 s⁻¹ | < 1e-05 s⁻¹ | < 1e-05 s⁻¹ | < 1e-05 s⁻¹ | – |
| G7U G37U U55A | < 1e-05 s⁻¹ | – | – | – | – |
| G7U G44U A48G C70G | < 1e-05 s⁻¹ | < 1e-05 s⁻¹ | < 1e-05 s⁻¹ | < 1e-05 s⁻¹ | – |
| G7U U31C C50A U56A | < 1e-05 s⁻¹ | – | < 1e-05 s⁻¹ | – | – |
| G7U U46A | < 1e-05 s⁻¹ | < 1e-05 s⁻¹ | < 1e-05 s⁻¹ | < 1e-05 s⁻¹ | < 1e-05 s⁻¹ |
| C8A A12G C16U C58G G59U | < 1e-05 s⁻¹ | – | – | < 1e-05 s⁻¹ | – |
| C8A A12U U57A | < 1e-05 s⁻¹ | – | < 1e-05 s⁻¹ | – | – |
| C8A A15G | < 1e-05 s⁻¹ | – | – | – | – |
| C8A A20U G62U | < 1e-05 s⁻¹ | – | – | – | – |
